Sequences with one replicate were seen in a single cluster, so their values are uncertain.
Each sequence was assayed on ATP (assay: switch fluorescence ratio, 500 uM ATP over buffer (Cy3 cluster intensity, sum of 5 cycles each) (fold (ratio)); higher = stronger signal-on switching upon ATP binding; sequences stand for … in TCGTCGGCAGCGTCAGATGTGTATAAGAGACAGTTTTTTTTTTTTTTTTTTTTTTTTT…TC). Settings: aptamer strand: ATP DNA aptamer (quencher-CACCTGGGGGAGTATTGCGGAGGAAGG + anchor), 100 nM annealed; ATP concentration: 500 uM; one replicate.
Method in brief: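 Five buffer/ATP imaging cycles were run on Cy3-labelled switching-strand clusters on a modified Illumina MiSeq flow-cell, with NaOH stripping and re-annealing between cycles. In each cycle, clusters annealed to 100 nM quencher-labelled ATP aptamer were imaged in selection buffer, then after 15 min with 500 uM ATP at 22 °C. Per cluster, the fluorescence ratio is summed target-cycle over summed buffer-cycle Cy3 intensity, averaged per switch-domain sequence. Only clusters within 100-1000 RFU were kept.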
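Further: ATP exposure 15 min at 22 °C before imaging.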

Sequence | switch fluorescence ratio
ATCATCGCCC | 1.06
ATCATCTACG | 1.02
ATCATTGG | 0.99
ATCATTGGGG | 0.978
ATCATTGTGG | 0.998
ATCATTTTGT | 0.996
ATCCAACTT | 1.05
ATCCACTAGA | 1.05
ATCCAGACTG | 0.993
ATCCAGAGGT | 1.04
ATCCAGATG | 1.12
ATCCAGGAGA | 1
ATCCAGTGTT | 1.04
ATCCCAATAT | 3.01
ATCCCACTAG | 1.1
ATCCCGGTG | 1.84
ATCCCGTTTA | 0.941
ATCCCTTACG | 1.04
ATCCCTTGTT | 1
ATCCGCACAG | 5.8
ATCCGCGGAG | 1.04
ATCCTAAGCT | 1.05
ATCCTAAGTT | 1.01
ATCCTTGGAA | 1.02
ATCCTTTGTT | 0.954
ATCGAAAGTG | 0.982

Sequence | switch fluorescence ratio
ATCGAAGACG | 0.994
ATCGAAGCGA | 1.14
ATCGAAGTCT | 0.97
ATCGAATGGT | 0.97
ATCGAGACGG | 1.12
ATCGCCGGAA | 1.09
ATCGCGAGGG | 1.04
ATCGCGGTCA | 1.02
ATCGCTTTTT | 0.997
ATCGGACTTA | 1.08
ATCGGATCAC | 1.01
ATCGGCAAAA | 1.23
ATCGGCCCAG | 0.963
ATCGGCGTC | 0.975
ATCGGCTGAA | 0.995
ATCGGCTTCC | 1.75
ATCGGGATA | 0.999
ATCGGGCAGC | 0.979
ATCGGGCTTC | 0.971
ATCGGGTATT | 1.02
ATCGGTAGAT | 0.91
ATCGGTTGCT | 1
ATCGGTTT | 0.993
ATCGTCACTA | 1
ATCGTCGCTC | 0.999
ATCGTGCAGG | 0.961

Sequence | switch fluorescence ratio
ATCGTGTTTT | 0.978
ATCGTTGGCA | 1.02
ATCGTTTGTC | 0.977
ATCTAAGTCG | 0.999
ATCTAATAAA | 1.02
ATCTACCAGT | 1.16
ATCTACGCAT | 5.51
ATCTAGGAGG | 0.977
ATCTAGTCCG | 1.03
ATCTATTCAG | 0.993
ATCTCAAAAT | 1.08
ATCTCAACG | 1.01
ATCTGAGACA | 1.02
ATCTGAGCGG | 0.956
ATCTGATCTT | 1.03
ATCTGATTAT | 1
ATCTGCACGA | 1.04
ATCTGGACAC | 1.02
ATCTGGAGGT | 1.01
ATCTGGGGGT | 1.02
ATCTGGTGCC | 1.03
ATCTGTATTT | 1
ATCTGTGGTG | 0.974
ATCTTAGAGT | 1.01
ATCTTCTCGT | 0.974
ATCTTGGCTC | 1.05

Sequence | switch fluorescence ratio
ATCTTTGAAT | 1
ATGAAAAGCT | 1.05
ATGAAACCAG | 1.03
ATGAAAGGTG | 1.25
ATGAAATAGA | 0.969
ATGAAATTGC | 0.983
ATGAACAGCT | 1.02
ATGAACATGA | 1.04
ATGAACGCTC | 1.24
ATGAAGGATT | 1.02
ATGAAGTGCG | 1.03
ATGAATGTAG | 1
ATGACATTAA | 1.03
ATGACCGAAG | 1
ATGACTCTTA | 0.943
ATGACTGCAG | 0.919
ATGACTGTAC | 1.77
ATGACTTTTT | 0.993
ATGAGAGTT | 1.02
ATGAGCGATG | 1
ATGAGCTATG | 1.01
ATGAGGATTA | 0.995
ATGAGGCCGA | 0.978
